Among all 330,000 compounds or so, about 4,200 (1.3%) were called active. Inconclusive means that the source gave no clear call. Such entries were picked first, then a sample of the others. Calls follow the shape of the dose curve; as a rule, active = well fitted activation curve with a large enough effect; inconclusive = small, poorly fitted or top-dose-only effect; inactive = no such curve, though single readings can be large or run the other way. Potencies beside an inconclusive call are fits to weak or partial responses and may not hold up.
assay: qHTS screen for small molecules that induce genotoxicity in human embryonic kidney (HEK293T) cells expressing luciferase-tagged ELG1; conditions: HEK293T ELG1-luciferase reporter, luminescence, 16 h; series mostly up to 46 µM; activity change, positive = activation: at the top concentration; also: nearly all actives have a fitted effect of over 60% in size; as to activity change, positive = activation: % of control where 0% means no effect
Summary of the method: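 Genotoxic stress is detected as increased luminescence from luciferase-tagged ELG1 in HEK293T cells, measured with ONE-Glo after a 16 hr treatment at 37 °C.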
Potency is read from the fitted curve at half-maximal effect; tags tell the direction and shape of the fitted curve.

Row | Structure (SMILES) | Potency | activity change, positive = activation
1 | COc1ccccc1Oc1ccc(N/C=C/C(=O)c2ccco2)cc1 | inconclusive: 4.11 µM [activator, single point] | 
2 | Cc1ccc(C(=O)O/N=C(\N)c2ccccn2)c(Cl)c1 | inconclusive: 0.164 µM [activator, partial curve, poor fit] | 
3 | COc1cc(C=C(c2nc3ccccc3s2)c2nc3ccccc3s2)cc(OC)c1O |  | inactive: -1.93%
4 | NNC(=O)c1cccc(COc2ccccc2Br)c1 | inconclusive: 0.92 µM [activator, partial curve] | 
5 | Cc1ccc(NC(=O)N2CCc3ccccc3C2)cc1 | active: 8.2 µM | 
6 | Cc1ccc2nc(-c3ccccc3)cc(C(=O)N3CCc4ccccc4C3)c2c1 |  | inactive: -1.08%
7 | O=C(CCl)c1ccc2c(c1)CCN2C(=O)C1CC1 | inconclusive: 23.1 µM [activator, single point] | 
8 | O=C(O)c1ccc(N/N=C/c2ccc(C(F)(F)F)cc2)cc1 | active: 0.103 µM | 
9 | C=CCSc1nnc(NC(=O)C2=COCCO2)s1 | inconclusive: 13 µM [activator, partial curve] | 
10 | O=C(Nc1ccc(NC(=O)c2cccs2)cn1)c1ccco1 | inconclusive: 2.31 µM [activator, partial curve, poor fit] | 
11 | Cc1ccc(/C=N\NC(=O)c2cncc(Br)c2)o1 |  | inactive: -2.66%
12 | C/C(=N\Nc1nc(-c2ccccn2)nc2ccccc12)c1ccc(F)cc1 |  | inactive: -1.32%
13 | O=C(NCCCN1CCOCC1)c1cc(-c2ccccc2)nc2ccccc12 |  | inactive: 7.87%
14 | CC1CCCC(C)N1CCCNC(=O)c1nn(C)c2c1CSc1ccccc1-2 (centres undefined) | inconclusive: 16.4 µM [activator, partial curve] | 
15 | CCN(CC)CCN(C(=O)Cn1nnc(-c2ccc(OC)c(OC)c2)n1)C(C(=O)NC1CCCC1)c1ccc(F)cc1 (centres undefined) | inconclusive: 20.6 µM [activator, single point] | 
16 | Cc1cccc(Cn2c(SCC(=O)Nc3ccccc3)nc3c2c(=O)[nH]c(=O)n3C)c1 |  | inactive: -13.7%
17 | Cc1cc(C)n2nc(SCC(=O)NC3CCCC(C)C3C)nc2n1 (centres undefined) |  | inactive: -1.11% [at 9.26 µM]
18 | CCOC(=O)N1N=C(c2ccc(C)cc2)CC1(O)C(F)(F)F (centres undefined) | inconclusive: 1.84 µM [activator, full curve, poor fit] | 
19 | Nc1nc(Nc2ccc(Cl)cc2)nc2ccccc12 | inconclusive: 0.291 µM [activator, full curve, poor fit] | 
20 | Fc1ccc(-c2cn3cc(C(F)(F)F)cc(Cl)c3n2)cc1 | inconclusive: 1.03 µM [activator, full curve] | 
21 | COC(c1ccccc1)c1nnc(CCC(=O)N(C)C(C2CC2)C2CC2)o1 (centres undefined) | inconclusive: 11.6 µM [activator, partial curve, poor fit] | 
22 | Nc1nc(SCc2ccccc2)[nH]c(=O)c1-c1ccccc1 | active: 11.6 µM | 
23 | CN(C)/C=C/C(=O)c1ccc(-n2cccc2)cc1 | inconclusive: 5.8 µM [activator, single point] | 
24 | COc1ccc(-c2csc(N3CCOCC3)n2)cc1OC | active: 18.4 µM | 
25 | CN(C(=O)CN1CCCCCC1)c1c(N)n(Cc2ccccc2)c(=O)[nH]c1=O |  | inactive: 2.59%
26 | N#CCSc1ncnc2ccccc12 |  | inactive: -16.2%
27 | Cc1ccsc1C(=O)NCCc1nnc2ccccn12 | inconclusive: 20.6 µM [activator, partial curve, poor fit] | 

Row | Structure (SMILES) | Potency | activity change, positive = activation
28 | c1cnc2c(OCc3nc4ccccc4[nH]3)cccc2c1 | inconclusive: 4.11 µM [activator, full curve] | 
29 | COc1ccc(/C=C2/N=C(SC3CCOC3=O)N(c3cccc(OC)c3)C2=O)cc1 (centres undefined) |  | inactive: -0.204%
30 | CC(/C=N/NC(=O)c1cnccn1)=C\c1ccco1 | inconclusive: 14.6 µM [activator, partial curve, poor fit] | 
31 | Cc1cc(NC(=O)c2cc(C(C)C)on2)no1 | inconclusive: 18.4 µM [activator, partial curve] | 
32 | N/C(=N/OC(=O)c1ccccc1Cl)c1ncc([N+](=O)[O-])s1 | inconclusive: 6.51 µM [activator, partial curve] | 
33 | O=C(Nc1ccc(F)cc1)N1CCc2ccccc2C1 | inconclusive: 18.3 µM [activator, partial curve] | 
34 | Cc1c(C(=O)Nc2ccccc2F)cnn1-c1ccccc1 | active: 8.2 µM | 
35 | COc1ccc2c(c1)S/C(=C\C(=O)c1ccncc1)N2C | active: 20.6 µM | 
36 | c1cncc(-c2cnc3ccccc3c2)c1 | inconclusive: 18.3 µM [activator, partial curve, poor fit] | 
37 | COc1ccc(Cc2nc3ccc(C(=O)NCC(C)(C)OC)cc3o2)cc1 | inconclusive: 20.6 µM [activator, partial curve] | 
38 | Cc1cccc(NC(=O)/C(C#N)=C\c2cccnc2)c1 |  | inactive: -1.78%
39 | O=C(O)c1ccc(N/N=C/c2ccc(-c3ccc(Cl)cc3Cl)o2)cc1 | inconclusive: 23.1 µM [activator, partial curve] | 
40 | O=C(CSc1nnc(-c2ccccc2)o1)N1CCCCC1 | inconclusive: 4.61 µM [activator, single point] | 
41 | O=C(Oc1c(CN2CCOCC2)cc(Cl)c2cccnc12)c1cccs1 |  | inactive: -16.7%
42 | O=C(c1cc(COc2c(F)cccc2F)on1)N1C[C@H]2CC[C@H]1C2 | active: 11.6 µM | 
43 | Cc1ccc(C(=O)c2cncc(Br)c2)cc1 |  | inactive: -12.1%
44 | Cc1ccc(S(=O)(=O)N2CCC(C(=O)NCc3ccncc3)CC2)cc1 |  | inactive: 1.24%
45 | O/N=C/c1nc2cc(Cl)ccc2o1 |  | inactive: 3.44%
46 | O=C(O)/C(=C1\OC(=O)c2ccccc21)c1ccccc1 |  | inactive: 0.63%
47 | Cc1nn(-c2ccccc2)c(Cl)c1/C=N/NC(=O)c1ccco1 | inconclusive: 8.2 µM [activator, partial curve] | 
48 | COc1ccc(NC(=O)C2(S(=O)(=O)c3ccc(C)cc3)CC2)cc1OC |  | inactive: 3.65%
49 | COc1cccc(NC(=O)c2cccc(S(=O)(=O)N3CCN(Cc4ccccc4)CC3)c2)c1 |  | inactive: -12.4%
50 | Cc1cc(O)cc(O)c1C(=O)Cc1ccccc1 |  | inactive: -11.3%
51 | Cc1ccc(C(=O)Oc2oc(-c3ccco3)nc2C=Nc2ccc(Cl)cc2)cc1 | inconclusive: 2.59 µM [activator, partial curve] | 
52 | CCOC(=O)c1cnc(Nc2ccc(OCC)cc2)nc1C | inconclusive: 20.6 µM [activator, single point] | 
53 | COc1ccc(Cl)cc1NC(=O)C(C)N1CCN(c2ccccn2)CC1 (centres undefined) |  | inactive: -6.3%
54 | O=C(NCCSCc1ccco1)Nc1ccccc1 |  | inactive: 11.5%

Row | Structure (SMILES) | Potency | activity change, positive = activation
55 | COC(=O)C(Cc1ccc(O)cc1)NC(=O)c1ccc2c(c1)OCCO2 (centres undefined) | inconclusive: 25.9 µM [activator, partial curve, poor fit] | 
56 | COCCn1c(C)cc(C2=NNC(=Nc3ccccc3F)SC2)c1C | inconclusive: 0.259 µM [activator, full curve, poor fit] | 
57 | CCOC(=O)/C(C#N)=C/Nc1ccccc1OC | inconclusive: 14.6 µM [activator, partial curve] | 
58 | COc1cccc(CC(=O)Nc2ccc3c(c2)OC2(CCCC2)O3)c1 |  | inactive: 3.24%
59 | O=C(Cc1cccs1)Nc1nnc(SCC(=O)N2CCCCC2)s1 |  | inactive: -7.21%
60 | CC(=O)Nc1cccc(C(=O)OCC(=O)c2ccccc2Cl)c1 | inconclusive: 14.6 µM [activator, partial curve, poor fit] | 
61 | COc1ccc(C(=O)C2=NN(C(C)=O)CC2c2ccco2)cc1 (centres undefined) | inconclusive: 6.51 µM [activator, single point] | 
62 | Fc1cccc(/C=N/Nc2ccccn2)c1 | inconclusive: 10.3 µM [activator, partial curve, poor fit] | 
63 | N#Cc1cccc(-c2nnc(SCc3ccccc3C#N)o2)c1 | inconclusive: 35.5 µM [activator, single point] | 
64 | Cc1ccccc1C(=O)NC(C(=O)Nc1nc2c(s1)CCCC2)C(C)C (centres undefined) |  | inactive: 0.445%
65 | COc1ccc(/C=C2/N=C3CCCCCN3C2=O)cc1 | inconclusive: 29.1 µM [activator, single point] | 
66 | Cc1nnc2ccc(-c3ccc(NS(=O)(=O)c4ccccc4[N+](=O)[O-])cc3)nn12 | inconclusive: 16.4 µM [activator, single point] | 
67 | Clc1cccc(Nc2ncnc3c2cnn3-c2ccccc2)c1 | inconclusive: 29.1 µM [activator, single point] | 
68 | O=C1C=CN2CCCC2CC1 (centres undefined) |  | inactive: 0.906%
69 | Clc1cccc(CSc2ncn(-c3ccccc3)n2)c1 | inconclusive: 20.6 µM [activator, partial curve, poor fit] | 
70 | Brc1ccccc1OCCCOc1cccc2cccnc12 | inconclusive: 20.6 µM [activator, partial curve, poor fit] | 
71 | O=C(NC1CC1)c1ccc2c(Cl)c3c(nc2c1)CCCC3 |  | inactive: 0.0292%
72 | CC(Oc1ccc(Cl)cc1Cl)c1nc(-c2ccc(NC(=O)c3ccco3)cc2)no1 (centres undefined) | inconclusive: 9.2 µM [activator, partial curve] | 
73 | CC(C)(C)c1ccc(C(=O)Nc2cnccn2)cc1 | active: 0.651 µM | 
74 | O=C(Cc1ccccc1)Nc1ccc(NC(=O)c2ccccc2)nc1 | inconclusive: 14.6 µM [activator, partial curve] | 
75 | CCc1cccc(C)c1NC(=S)N(CCN(C)C)C(C)c1ccco1 (centres undefined) |  | inactive: 2.2%
76 | CCOc1cccc(/C=C/c2ccc3cccc(O)c3n2)c1OC | active: 20.6 µM | 
77 | Cc1ccccc1C(=O)Nc1ccc(Cl)cn1 | active: 10.3 µM | 
78 | O=C(COc1ccccc1Cl)Nc1ccc(N2CCN(C(=O)c3ccccc3)CC2)cc1 |  | inactive: -21.6%
79 | COc1cccc(C(=O)Nc2ccc(F)c(F)c2F)c1 | inconclusive: 11.6 µM [activator, partial curve, poor fit] | 

— PubChem BioAssay AID504466 (National Center for Advancing Translational Sciences (NCATS), 2011)
